# Reference: PubChem BioAssay AID588342 (National Center for Advancing Translational Sciences (NCATS), 2011)
# Hit rate of the full screen: of about 360,000 compounds, about 25,000 (6.9%) were called active. This list was built around the results that the source calls inconclusive (neither active nor inactive); the mix of calls is not that of the screen. Calls follow the shape of the dose curve; as a rule, active = well fitted inhibition curve with a large enough effect; inconclusive = small, poorly fitted or top-dose-only effect; inactive = flat fitted curve, though single readings scatter. Potencies of inconclusive entries are doubtful fits and often do not repeat.
# Molecular target: Luciferin 4-monooxygenase (Photinus pyralis) (UniProt P08659)
# Chain of UniProt P08659 (P08659 whole entry, looked up): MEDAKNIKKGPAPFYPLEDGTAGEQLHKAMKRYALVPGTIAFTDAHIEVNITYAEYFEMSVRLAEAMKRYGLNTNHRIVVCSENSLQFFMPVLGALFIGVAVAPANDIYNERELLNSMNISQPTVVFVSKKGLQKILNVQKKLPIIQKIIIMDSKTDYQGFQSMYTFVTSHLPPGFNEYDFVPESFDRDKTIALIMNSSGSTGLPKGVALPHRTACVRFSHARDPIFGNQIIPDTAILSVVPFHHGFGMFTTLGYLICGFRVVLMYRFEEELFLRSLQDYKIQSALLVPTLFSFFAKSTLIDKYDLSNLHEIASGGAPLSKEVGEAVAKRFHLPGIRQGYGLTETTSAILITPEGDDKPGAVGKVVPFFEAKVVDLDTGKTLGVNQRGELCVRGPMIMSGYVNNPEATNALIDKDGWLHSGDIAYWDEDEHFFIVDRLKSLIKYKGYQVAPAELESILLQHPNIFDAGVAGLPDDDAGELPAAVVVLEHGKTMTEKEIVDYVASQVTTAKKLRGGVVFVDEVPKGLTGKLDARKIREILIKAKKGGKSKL
# Assay: qHTS profiling assay for firefly luciferase inhibitor/activator using purifed enzyme and Km concentrations of substrates (counterscreen for miR-21 project); also: nearly all actives have a fitted effect of over 55% in size;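 as to activity change, negative = inhibition: plate controls were vehicle for no effect and reference inhibitor for full effect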
# Conditions: purified FLuc, luminescence inhibition; activity change, negative = inhibition: at 57.5 µM (top of the series)
# How it was run: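 Purified P. pyralis luciferase (10nM final) with 10uM D-luciferin and 10uM ATP (Km levels) in 50mM Tris acetate pH 7.5, 10mM Mg acetate, 0.01% Tween-20, 0.05% BSA; qHTS 6-point titration, ~60 µM downward; luminescence read.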
# Potency is read from the fitted curve at half-maximal effect; tags tell the direction and shape of the fitted curve.
Structure (SMILES),Potency,"activity change, negative = inhibition"
O=C(O)c1ccc(N2C(=O)CC(N3C(=O)/C(=C/c4ccc(Cl)cc4)SC3=S)C2=O)cc1 (centres undefined),active: 16.9 µM,
Nc1nonc1-c1noc(CCCCCN2C(=O)c3ccccc3C2=O)n1,"inconclusive: 19 µM [inhibitor, partial curve, poor fit]",
O=C(N/N=C1/C(=O)c2cccc3cccc1c23)c1ccc(Cl)cc1,"inconclusive: 9.53 µM [inhibitor, partial curve]",
O=C(CN1C(=O)NC2(CCCCCC2)C1=O)N1CCN(c2ccccc2)CC1,,inactive: 6.05%
Cc1cc2n(n1)C(c1ccc(N(C)C)cc1)Nc1ccccc1-2 (centres undefined),active: 30.1 µM,
CCN(CC)S(=O)(=O)c1cccc(C(=O)N/N=C/c2cc(OC)c(O)c(OC)c2)c1,,inactive: -19.3%
CCOc1ccc(N(CC(=O)Nc2ccc(C)c(Cl)c2)S(C)(=O)=O)cc1,"inconclusive: 21.3 µM [inhibitor, single point]",
O=C(O)c1ccnc(SCC(=O)c2ccccc2)c1,"inconclusive: 23.9 µM [inhibitor, partial curve, poor fit]",
COc1ccc2c(C(=O)CCl)c[nH]c2c1,"inconclusive: 37.9 µM [inhibitor, partial curve, poor fit]",
O=C(NC(=S)NCC1CCCO1)c1ccc(Cl)cc1 (centres undefined),"inconclusive: 23.9 µM [inhibitor, single point]",
CCOC(=O)c1cccc(NC(=O)c2cc(-c3ccc(Cl)s3)nc3ccccc23)c1,,inactive: -12.5%
Cc1ccc(NS(=O)(=O)c2ccc(C(=O)N3CCCCCCC3)cc2)cc1,"inconclusive: 21.3 µM [inhibitor, single point]",
Cc1ccc(/C=N/NC(=O)c2ccc(-n3cnnn3)cc2)cc1,,inactive: -6.54%
COC(=O)c1c(C)c2c(C)cc3ccccn3c-2c1C(=O)OC,,inactive: 0.154%
COc1cc(OC)cc(C(=O)Nc2ccc(S(=O)(=O)Nc3onc(C)c3C)cc2)c1,"inconclusive: 37.9 µM [inhibitor, partial curve, poor fit]",
COc1ccc(NC(C)=O)cc1NC(=O)CSc1nnc(-c2cccnc2)n1C,,inactive: 6.86%
Cn1c2ccc(F)cc2c2ncn(CC3CCCO3)c(=O)c21 (centres undefined),"inconclusive: 30.1 µM [inhibitor, partial curve, poor fit]",
O=C(O)c1ccccc1C(=O)c1ccc(N2CCCC2)c([N+](=O)[O-])c1,active: 23.9 µM,
CSc1cccc(NC(=O)c2[nH]c(C)c(C(C)=O)c2C)c1,active: 16.9 µM,
O=C(CSc1nccn1Cc1ccc(F)cc1)NCc1ccccc1,,inactive: 1.89%
C=C1C(=O)[C@@]23[C@H](O)C[C@@H]4C(C)(C)CC[C@H](O)[C@]4(C)[C@@H]2C[C@H](O)[C@@H]1[C@H]3O,,inactive: 1.7%
CCOC(=O)CSc1nnc(NC(=O)c2cccc([N+](=O)[O-])c2C)s1,"inconclusive: 15.1 µM [inhibitor, partial curve]",
COc1ccccc1CN1CC(C(=O)NCc2c(F)ccc(C)c2F)CCC1=O (centres undefined),active: 30.1 µM,
O=[N+]([O-])c1ccc(N/N=C/c2cccc(O)c2O)c(S(=O)(=O)N2CCOCC2)c1,,inactive: -1.52%
OCCN1CCN(CC(O)COc2ccc(-c3ccccc3)cc2)CC1 (centres undefined),"inconclusive: 21.3 µM [inhibitor, partial curve]",

Structure (SMILES),Potency,"activity change, negative = inhibition"
O=[N+]([O-])c1ccc(N/N=C/c2cn(-c3ccccc3)nc2-c2ccccc2)cc1,active: 2.69 µM,
Cc1cccc(CCN(C(=O)Cc2cccs2)C(C(=O)NC2CCCCC2)c2cccnc2)c1 (centres undefined),,inactive: 4.19%
Cc1ccc(N(CC2CO2)S(=O)(=O)c2ccccc2[N+](=O)[O-])cc1 (centres undefined),,inactive: -0.0081%
O=c1ccnc(S/C=C/c2ccccc2)[nH]1,active: 19 µM,
Cc1cc(C(=O)N/N=C/c2ccc(OCc3ccccc3)cc2)c(C)o1,"inconclusive: 13.5 µM [inhibitor, partial curve]",
CN(C)S(=O)(=O)c1cccc(C(=O)C2=C3SC=C(c4ccccc4)N3CC2)c1,"inconclusive: 19 µM [inhibitor, partial curve, poor fit]",
CC1CCN(C(=O)CNC(=O)c2ccc(Cl)cc2Cl)CC1,"inconclusive: 37.9 µM [inhibitor, partial curve, poor fit]",
Cc1ccc(N2CC(C(=O)N3CCCCCC3)CC2=O)cc1 (centres undefined),,inactive: 1.95%
Nc1nn(-c2cccc(F)n2)cc1-c1ccc(Cl)cc1,active: 0.953 µM,
O=c1ccc2cc(S(=O)(=O)NCc3ccc(Cl)cc3)ccc2[nH]1,"inconclusive: 21.3 µM [inhibitor, single point]",
Cc1ccc(NC(=O)CNC(=O)c2ccco2)cc1,"inconclusive: 26.9 µM [inhibitor, single point]",
CSCc1c(C(=O)Nc2ccc3c(c2)OCO3)oc2ccccc12,active: 19 µM,
COc1ccc(OCCSc2nnc3sc4ccccc4n23)cc1,"inconclusive: 33.8 µM [inhibitor, single point]",
O=S(=O)(c1ccccc1)c1ccc(N2CCCCCC2)cc1,"inconclusive: 21.3 µM [inhibitor, partial curve, poor fit]",
CCN(CC)c1ccc2cc(-c3nc(-c4ccccc4)no3)c(=O)oc2c1,active: 6.01 µM,
CCCCNc1ncnc2c1cnn2-c1ccc(Cl)cc1,active: 2.69 µM,
O=c1c2cc(Cl)ccc2nc(-c2ccc([N+](=O)[O-])cc2)n1O,"inconclusive: 15.1 µM [inhibitor, partial curve]",
COc1ccc(NC(=O)/C=C/c2ccc(OC)c(OC)c2)cn1,"inconclusive: 37.9 µM [inhibitor, single point]",
CC1CC(C)CN(C(=O)c2ccc3ccccc3c2)C1 (centres undefined),,inactive: -3.89%
S=C(Nc1cccc(Cl)c1)Nc1ccc2c(c1)OCCO2,"inconclusive: 19 µM [inhibitor, single point]",
CSc1ccc(CNC(=O)c2ccc3c(c2)N(C)C(=O)C2CCCCN32)cc1 (centres undefined),,inactive: 2.44%
Cc1ccc(C(=O)NNC(=O)/C=C\C(=O)O)cc1,"inconclusive: 37.9 µM [inhibitor, single point]",
COC(=O)/C=c1\[nH]c2nnc(C)n2c1=O,,inactive: 2.59%
COc1ccc(OCCCC(=O)OC(C)C(=O)Nc2ccc(C)cc2)cc1 (centres undefined),,inactive: 0.355%
Cc1ccc2c(c1)N(CC(=O)NCCC1=CCCCC1)C(=O)c1cccnc1O2,,inactive: 1.14%

Structure (SMILES),Potency,"activity change, negative = inhibition"
Cc1cccc(-n2cnc3c(c2=O)c2nc4ccccc4nc2n3Cc2ccco2)c1,"inconclusive: 21.3 µM [inhibitor, single point]",
COC(=O)c1c(C)[nH]c(C(=O)/C=C/c2ccc(Cl)cc2)c1C,"inconclusive: 4.78 µM [inhibitor, full curve]",
Cc1ccc(S(=O)(=O)O/N=C2\CCCc3ccccc32)cc1,,inactive: -3.3%
Fc1ccc(NC(=S)NN2CCOCC2)cc1Cl,,inactive: 1.41%
COc1ccc(NC(=O)c2ccc(=O)oc2)cc1,"inconclusive: 37.9 µM [inhibitor, single point]",
O=C(CSc1cn[nH]n1)Nc1cccc(C(=O)O)c1,"inconclusive: 37.9 µM [inhibitor, partial curve, poor fit]",
CCOC(=O)N1N=C(CC)CC1(O)C(F)(F)F (centres undefined),,inactive: 10.7%
CN1CCN(C(=S)Nc2ccc([N+](=O)[O-])cc2)CC1,"inconclusive: 30.1 µM [inhibitor, partial curve]",
ONC(=Nc1ccc(Cl)cc1)c1ccc(Cl)cc1,"inconclusive: 23.9 µM [inhibitor, single point]",
Cc1nn(-c2ccc(N3CCOCC3)nn2)c(C)c1CCC(=O)Nc1ccc(F)cc1,"inconclusive: 37.9 µM [inhibitor, partial curve, poor fit]",
CNC(=O)NC(=O)CSc1ccc(S(=O)(=O)N(C)C2CCCCC2)cn1,,inactive: 3.29%
COc1ccc(CNC(=O)c2ccc(CNS(=O)(=O)c3ccc(OC)cc3)cc2)cc1,"inconclusive: 37.9 µM [inhibitor, single point]",
CCOC(=O)CNC(=O)CSc1nc2c(C)cccc2cc1CC,"inconclusive: 21.3 µM [inhibitor, partial curve, poor fit]",
CC(/C=N/NC(=O)CSc1nc2ccccc2n1C)=C\c1ccco1,,inactive: -16.4%
Cn1c(CNC(=O)c2ccc3c(c2)OCO3)nnc1SCC(=O)Nc1ccc(F)cc1F,"inconclusive: 26.9 µM [inhibitor, single point]",
Cc1ccc(S(=O)(=O)CCC(=O)NCCN2C(=O)S/C(=C\c3ccccc3)C2=O)cc1,"inconclusive: 13.5 µM [inhibitor, partial curve, poor fit]",
COC(=O)c1cn(-c2ccccc2)nc1-c1ccc(OC)c(OC)c1,active: 21.3 µM,
Cc1nnnn1CC(=O)Nc1cccc([N+](=O)[O-])c1,,inactive: -1.17%
O=C(CN(Cc1ccco1)C(=O)c1ccc(F)cc1F)Nc1ccccc1C(F)(F)F,"inconclusive: 8.49 µM [inhibitor, single point]",
O=C(O)COc1ccccc1/C=N/NC(=O)CSc1nc2ccccc2c(=O)n1-c1ccccc1,"inconclusive: 23.9 µM [inhibitor, single point]",
O=C(Nc1cccc(Cl)c1N1CCOCC1)c1ccc(Br)o1,"inconclusive: 33.8 µM [inhibitor, partial curve, poor fit]",
COc1cc(/C=N/N2CCN(c3ccccc3)CC2)ccc1OC(C)=O,"inconclusive: 26.9 µM [inhibitor, partial curve, poor fit]",
CCc1c(C)c2ccc(OC3CCCCC3=O)cc2oc1=O (centres undefined),"inconclusive: 23.9 µM [inhibitor, single point]",
O=C(Nc1cccnc1Cl)c1cc2ccccc2o1,active: 5.36 µM,
